# Laboratory results from the supplement of paper PMC7826260.
# The list shows a part of the results. One pool of 16,384 single-stranded DNAs met each Rep nickase domain in vitro for 1 h at 37 °C with 3 µM enzyme; only the middle of the 90-letter strands is printed. A value is the log2 ratio of uncut reads to the pool without enzyme; more negative means more cut, near 0 not cut, and no call is made. The scaling is to total reads; values above 0 arise when much of the pool is cut.
# Tested on: T1, Rep nickase domain of chickpea chlorotic dwarf virus
# T1 sequence (residues 1-124 of Rep, tag left off): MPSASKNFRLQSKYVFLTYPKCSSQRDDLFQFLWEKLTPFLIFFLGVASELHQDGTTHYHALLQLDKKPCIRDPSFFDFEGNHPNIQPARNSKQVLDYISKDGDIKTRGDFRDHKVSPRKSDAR
# Test: uncleaved DNA left, log2 of reads against the no-enzyme library (log2 ratio); higher = less cleavage (more negative = more Rep cleavage of the k-mer); sequences stand for … in CTCGTCCG…ACCGGAGA
# Procedure: (§1)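 A pool of 90-nt single-stranded DNAs with seven random bases just before the constant AC of the nick site (name = the seven bases) was cut by 3 µM recombinant His6-SUMO-tagged Rep nickase domain (300 nM DNA, 50 mM HEPES pH 8.0, 50 mM NaCl, 1 mM MnCl2, 1 h, 37 °C, three replicates). Uncut DNA was amplified and sequenced.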
row,Sequence,uncleaved DNA left (log2)
1,GTATGAC,1.12
2,AACACGA,-0.617
3,TGAACGT,0.151
4,CGACGTT,0.267
5,TCTACGG,1.57
6,CCCTGCT,-1.32
7,GAACCCT,-1.69
8,ACCGTAG,0.146
9,ACCGGTG,0.175
10,CATAATT,-3.25
11,CGGAGAT,1.23
12,ACTTCGG,0.113
13,GAAGGAG,0.967
14,AGGGCTT,1.18
15,ACACGCT,-2
16,CTAAAGC,-0.255
17,TCTTTAT,-0.676
18,TAAAGGC,-0.141
19,TCACGGA,0.277
20,ACGCTCA,-1.16

row,Sequence,uncleaved DNA left (log2)
1,GAATACT,-2.74
2,AGTTGCT,-1.02
3,TGACGAT,0.373
4,TCTGATA,-0.675
5,GCACTAG,-0.554
6,TACCGGG,0.384
7,ATCCTGC,-0.484
8,ACTCTAC,-2.17
9,AACAAGT,-0.932
10,TTTATTT,-2.35
11,GTATGCA,0.388
12,TCCACGT,-0.0444
13,GCTTGTG,-0.065
14,CCTCTGG,0.375
15,CATTGGG,0.595
16,AGCTCAC,0.00523
17,CACAAAA,-0.464
18,ACATCAC,-0.963
19,GCTGATG,-0.0504
20,TTCCAAG,-0.617

# Tested on: T2, Rep nickase domain of faba bean necrotic yellows virus
# T2 sequence (residues 1-98 of Rep, tag left off): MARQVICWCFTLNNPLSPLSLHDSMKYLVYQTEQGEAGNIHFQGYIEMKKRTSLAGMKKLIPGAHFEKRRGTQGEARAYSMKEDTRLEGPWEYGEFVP
# Test: as above
# Procedure: as §1
row,Sequence,uncleaved DNA left (log2)
1,GTATGAC,0.031
2,AACACGA,-0.0322
3,TGAACGT,0.123
4,CGACGTT,-0.00364
5,TCTACGG,-0.0682
6,CCCTGCT,-0.0681
7,GAACCCT,0.0494
8,ACCGTAG,0.134
9,ACCGGTG,-0.026
10,CATAATT,-0.0878
11,CGGAGAT,-0.0616
12,ACTTCGG,0.133
13,GAAGGAG,-0.00849
14,AGGGCTT,0.0152
15,ACACGCT,0.0178
16,CTAAAGC,0.138
17,TCTTTAT,0.0638
18,TAAAGGC,-0.0403
19,TCACGGA,0.04
20,ACGCTCA,-0.0531

row,Sequence,uncleaved DNA left (log2)
1,GAATACT,-0.622
2,AGTTGCT,-0.052
3,TGACGAT,-0.114
4,TCTGATA,0.05
5,GCACTAG,0.053
6,TACCGGG,-0.0969
7,ATCCTGC,0.0529
8,ACTCTAC,-0.0922
9,AACAAGT,0.0209
10,TTTATTT,0.00597
11,GTATGCA,0.0442
12,TCCACGT,0.11
13,GCTTGTG,0.00168
14,CCTCTGG,0.0448
15,CATTGGG,0.0768
16,AGCTCAC,-0.168
17,CACAAAA,0.0386
18,ACATCAC,-0.0945
19,GCTGATG,0.0942
20,TTCCAAG,-0.0553

# Tested on: T3, Rep nickase domain of maize striate mosaic virus
# T3 sequence (residues 1-117 of Rep, tag left off): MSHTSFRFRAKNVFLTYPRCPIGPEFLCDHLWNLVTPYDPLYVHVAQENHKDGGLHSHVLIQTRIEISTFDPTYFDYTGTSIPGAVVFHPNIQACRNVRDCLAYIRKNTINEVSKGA
# Test: as above
# Procedure: as §1
row,Sequence,uncleaved DNA left (log2)
1,GTATGAC,1.63
2,AACACGA,-1.06
3,TGAACGT,-0.0955
4,CGACGTT,1.19
5,TCTACGG,2.17
6,CCCTGCT,-0.939
7,GAACCCT,0.998
8,ACCGTAG,-0.593
9,ACCGGTG,-0.389
10,CATAATT,-1.03
11,CGGAGAT,1.26
12,ACTTCGG,-0.496
13,GAAGGAG,0.423
14,AGGGCTT,1.86
15,ACACGCT,-0.995
16,CTAAAGC,-1.04
17,TCTTTAT,-0.323
18,TAAAGGC,-0.615
19,TCACGGA,-0.0478
20,ACGCTCA,-0.521

row,Sequence,uncleaved DNA left (log2)
1,GAATACT,-1.92
2,AGTTGCT,-1.21
3,TGACGAT,1
4,TCTGATA,0.0558
5,GCACTAG,-1.17
6,TACCGGG,0.393
7,ATCCTGC,-1.09
8,ACTCTAC,-0.865
9,AACAAGT,-0.799
10,TTTATTT,-0.467
11,GTATGCA,-0.201
12,TCCACGT,0.0722
13,GCTTGTG,-0.845
14,CCTCTGG,-0.351
15,CATTGGG,-0.167
16,AGCTCAC,-0.271
17,CACAAAA,-0.656
18,ACATCAC,-0.948
19,GCTGATG,-0.304
20,TTCCAAG,-1.08
